The structures appear in SMILES notation. Some of the results follow.

In this assay the test system is S. aureus RN4220. In words: growth inhibition call (relative growth <= 0.2). The settings on record: 50 µM.
`COc1cccc(S(=O)(=O)N(C)C[C@H]2Oc3ncc(C#CC(C)C)cc3C(=O)N([C@H](C)CO)C[C@@H]2C)c1`: the growth inhibition call was “inactive”. Consider `C[C@@H]1CN([C@@H](C)CO)C(=O)c2cc(NS(=O)(=O)c3ccc(F)cc3)ccc2O[C@@H](C)CCCCO[C@@H]1CN(C)C(=O)CCC(F)(F)F`, for which the growth inhibition call is “inactive”.

As to `CC(C)NC(=O)Nc1ccc2c(c1)CC(=O)N([C@@H](C)CO)C[C@H](C)[C@@H](CN(C)S(=O)(=O)c1cn(C)cn1)O2`, the growth inhibition call was “inactive”. Turning to `C[C@@H]1CN([C@@H](C)CO)C(=O)c2cccc(NS(=O)(=O)c3ccc(F)cc3)c2O[C@H]1CN(C)Cc1ccc(Cl)c(Cl)c1`, the growth inhibition call was “inactive”. For `C[C@@H]1CN([C@@H](C)CO)C(=O)c2cccc(NC(=O)C3CCOCC3)c2O[C@H]1CN(C)Cc1ccc(-c2ccccc2)cc1`, the growth inhibition call is “inactive”. As for `COC(=O)/C=C/c1ccc(C(=O)NCC(=O)N[C@@H](CCC(=O)OC)C(=O)N[C@@H](CC(C)C)C(N)=O)cc1`, the growth inhibition call was “inactive”.

Regarding `CO[C@H]1CN(C)C(=O)c2cc(NS(=O)(=O)c3cn(C)cn3)ccc2OC[C@H](C)N(Cc2cccc(F)c2)C[C@H]1C`, the growth inhibition call is “inactive”. Take `CCCNC(=O)N[C@@H]1CC[C@H](CC(=O)N2CCN(C)CC2)O[C@H]1CO`: the growth inhibition call is “inactive”. In the case of `Cn1cnc(S(=O)(=O)N2C[C@@H](O)COC[C@H]3O[C@@H](CC(=O)NCc4cccc(F)c4)CC[C@@H]32)c1`, the growth inhibition call was “inactive”.

Consider `CN(C)CCCN1c2ccccc2Sc2ccc(Cl)cc21.Cl`, for which the growth inhibition call was “inactive”. Turning to `COCC(=O)N1CC[C@@H](O)[C@@H]1Cc1cnn(C)c1`, the growth inhibition call is “inactive”. As for `CO[C@H](CN(C)S(=O)(=O)c1ccc(F)cc1)[C@H](C)CN([C@@H](C)CO)S(=O)(=O)c1cccc(Cl)c1`, the growth inhibition call was “inactive”.

In the case of `C[C@H](CO)N1C[C@H](C)[C@H](CN(C)S(=O)(=O)c2cn(C)cn2)Oc2cc(C#Cc3ccc(F)cc3)ccc2S1(=O)=O`, the growth inhibition call is “inactive”. Regarding `C[C@H]1CCCCO[C@H](CN(C)Cc2ccccc2)[C@@H](C)CN([C@@H](C)CO)C(=O)c2cc(NC(=O)C3CCCCC3)ccc2O1`, the growth inhibition call was “inactive”. Take `Cc1ccc(S(=O)(=O)N(C)C[C@@H]2Oc3cc(C#Cc4ccncc4)ccc3S(=O)(=O)N([C@@H](C)CO)C[C@H]2C)cc1`: the growth inhibition call is “inactive”. As for `COc1ccc(NC(=O)Nc2ccc3c(c2)C(=O)N([C@H](C)CO)C[C@H](C)[C@@H](CN(C)CC2CC2)OCCCC[C@H](C)O3)cc1`, the growth inhibition call is “inactive”. On to `NC1(C(=O)O)CCCC1`, for which the growth inhibition call was “inactive”. In the case of `C[C@@H]1CN([C@H](C)CO)C(=O)c2cccc(NS(C)(=O)=O)c2O[C@@H]1CN(C)C(=O)Nc1ccc(F)cc1`, the growth inhibition call was “inactive”. Consider `CC(C)NC(=O)N(C)C[C@@H]1Oc2ccc(NC(=O)C3CCCCC3)cc2CC(=O)N([C@@H](C)CO)C[C@H]1C`, for which the growth inhibition call was “inactive”. For the molecule `Cc1noc(C)c1NC(=O)Nc1cccc2c1O[C@@H](CN(C)Cc1ccc(Cl)c(Cl)c1)[C@H](C)CN([C@@H](C)CO)C2=O`, the growth inhibition call was “inactive”.

For `CCOc1nc2cccc(C(=O)O)c2n1Cc1ccc(-c2ccccc2-c2nnn[nH]2)cc1`, the growth inhibition call was “inactive”.

For `C=CC[C@H](CC(=O)N(CCO)Cc1ccccc1)C(=O)NC[C@H](OC(=O)[C@@H](CC=C)Cc1ccc(F)cc1)c1ccccc1`, the growth inhibition call was “inactive”. Consider `C[C@@H]1CCCCO[C@H](CN(C)C(=O)Cc2ccccc2)[C@@H](C)CN([C@@H](C)CO)C(=O)c2cc(NS(=O)(=O)c3ccc(F)cc3)ccc2O1`, for which the growth inhibition call was “inactive”. For the molecule `CN1CCN(C(=O)C[C@@H]2CC[C@H]3[C@@H](COC[C@H](O)CN3Cc3ccc(Oc4ccccc4)cc3)O2)CC1`, the growth inhibition call was “inactive”. Take `C[C@@H]1CN([C@H](C)CO)C(=O)c2cc(NC(=O)Nc3ccc(F)cc3)ccc2O[C@@H](C)CCCCO[C@H]1CN(C)S(=O)(=O)c1ccc(Cl)cc1`: the growth inhibition call is “inactive”.

In the case of `COc1ccc(NC(=O)Nc2ccc3c(c2)C(=O)N([C@@H](C)CO)C[C@H](C)[C@@H](CN(C)Cc2ccc4c(c2)OCO4)OCCCC[C@@H](C)O3)cc1`, the growth inhibition call is “inactive”. Take `COC(=O)[C@H](Cc1ccccc1)N1CC2=C[C@@H](C3CC3)n3c(=O)n(C)c(=O)n3[C@H]2[C@@H]1[C@@H](O)CCn1cc(-c2cccc(/C=C/C(=O)NO)c2)nn1`: the growth inhibition call was “inactive”.

As for `C[C@@H]1CN([C@@H](C)CO)C(=O)c2cccc(NC(=O)Nc3ccc(C(F)(F)F)cc3)c2O[C@@H]1CN(C)Cc1ccc(C(=O)Nc2ccccc2N)cc1`, the growth inhibition call is “inactive”. Consider `Cc1noc(C)c1NC(=O)N(C)C[C@H]1Oc2ncc(C#CCC(C)C)cc2C(=O)N([C@@H](C)CO)C[C@@H]1C`, for which the growth inhibition call was “inactive”.

Values taken from the antibiotic and cytotoxicity screens of Wong et al. (2023).
